# The supplement of paper PMC8728848
# The other results are listed elsewhere or left out.
# B1: EEA (Euonymus europaeus) (protein)
# chain: MASTIIATGPTYRVYCRAAPNYNMIVGKGVAFLAPIDETNELQYWYKDDTYSYIKDEAGLPAFSLVNKATGLTLKHSNHHPVPVKLVTYNPNVVDESVLWSQADDRGDGYSAIRSLTNPASHLEAAPLNDWSYNGAIIMGGVWIDAYNQQWKIEPHTG
# Columns and labels:
# Assay in all cases: glycan array binding signal (z-score within array); higher = stronger binding
# Conditions in all cases: glycan notation: IUPAC condensed, linker removed
# Gal3S(b1-4)GlcNAc6S = target: Gal3S(b1-4)GlcNAc6S
# In short: (§1)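 Arrays were curated from the Consortium for Functional Glycomics database, 3228 in total, and kept only where the protein sequence was available. Binding is expressed as a within-array Z-score. This score was averaged across arrays of the same protein sequence at different concentrations or buffers and across linkers, and negative values can be read as non-binding.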
# [1] = target: Gal3S(b1-4)[Fuc(a1-3)]Glc
# In short: as §1
# [2] = target: Gal3S(b1-4)[Fuc(a1-3)]Glc6S
# In short: as §1
# [3] = target: Gal3S(b1-4)[Fuc(a1-3)]GlcNAc
# In short: as §1
# [4] = target: Gal3S(b1-4)[Fuc(a1-3)]GlcNAc6S
# In short: as §1
# Gal3S4S(b1-4)GlcNAc = target: Gal3S4S(b1-4)GlcNAc
# In short: as §1
# Gal3S6S(b1-4)GlcNAc = target: Gal3S6S(b1-4)GlcNAc
# In short: as §1
# Gal3S6S(b1-4)GlcNAc6S = target: Gal3S6S(b1-4)GlcNAc6S
# In short: as §1
# Gal4S(b1-4)GlcNAc = target: Gal4S(b1-4)GlcNAc
# In short: as §1
# Gal4S6S(b1-4)GlcNAc = target: Gal4S6S(b1-4)GlcNAc
# In short: as §1
# Gal6P(b1-4)GlcNAc = target: Gal6P(b1-4)GlcNAc
# In short: as §1
# Gal6S(b1-3)GlcNAc = target: Gal6S(b1-3)GlcNAc
# In short: as §1
# Gal6S(b1-3)GlcNAc6S = target: Gal6S(b1-3)GlcNAc6S
# In short: as §1
# Gal6S(b1-4)Glc = target: Gal6S(b1-4)Glc
# In short: as §1
# Gal6S(b1-4)Glc6S = target: Gal6S(b1-4)Glc6S
# In short: as §1
# Gal6S(b1-4)GlcNAc = target: Gal6S(b1-4)GlcNAc
# In short: as §1
# Gal6S(b1-4)GlcNAc6S = target: Gal6S(b1-4)GlcNAc6S
# In short: as §1
# GalNAc(a1-3)Gal = target: GalNAc(a1-3)Gal
# In short: as §1
# GalNAc(a1-3)GalNAc = target: GalNAc(a1-3)GalNAc
# In short: as §1
# [5] = target: GalNAc(a1-3)GalNAc(a1-3)Gal(a1-4)Gal(b1-4)GlcNAc
# In short: as §1
# [6] = target: GalNAc(a1-3)GalNAc(b1-3)Gal(a1-4)Gal(b1-4)Glc
# In short: as §1
# GalNAc(b1-3)Gal = target: GalNAc(b1-3)Gal
# In short: as §1
# [7] = target: GalNAc(b1-3)Gal(a1-4)Gal(b1-4)GlcNAc
# In short: as §1
# [8] = target: GalNAc(b1-3)Gal(a1-4)Gal(b1-4)GlcNAc(b1-3)Gal(b1-4)Glc
# In short: as §1
# [9] = target: GalNAc(b1-3)Gal(a1-6)Gal(b1-4)Glc
# In short: as §1
# GalNAc(b1-3)GalNAc = target: GalNAc(b1-3)GalNAc
# In short: as §1
# GalNAc(b1-3)GlcNAc = target: GalNAc(b1-3)GlcNAc
# In short: as §1
# GalNAc(b1-4)Gal(b1-4)Glc = target: GalNAc(b1-4)Gal(b1-4)Glc
# In short: as §1
# GalNAc(b1-4)GlcNAc = target: GalNAc(b1-4)GlcNAc
# In short: as §1
# [10] = target: GalNAc(b1-4)GlcNAc(b1-2)Man
# In short: as §1
# [11] = target: GalNAc(b1-4)GlcNAc(b1-2)Man(a1-3)[GalNAc(b1-4)GlcNAc(b1-2)Man(a1-6)]Man(b1-4)GlcNAc(b1-4)GlcNAc
# In short: as §1
# [12] = target: GalNAc(b1-4)GlcNAc(b1-3)GalNAc(b1-4)GlcNAc
# In short: as §1
# GalNAc(b1-4)GlcNAc6S = target: GalNAc(b1-4)GlcNAc6S
# In short: as §1
# GalNAc(b1-6)GalNAc = target: GalNAc(b1-6)GalNAc
# In short: as §1
# GalNAc3S(b1-4)GlcNAc = target: GalNAc3S(b1-4)GlcNAc
# In short: as §1
# GalNAc3S(b1-4)GlcNAc3S = target: GalNAc3S(b1-4)GlcNAc3S
# In short: as §1
# [13] = target: GalNAc3S(b1-4)[Fuc(a1-3)]GlcNAc
# In short: as §1
# GalNAc4S6S(b1-4)GlcNAc = target: GalNAc4S6S(b1-4)GlcNAc
# In short: as §1
# GalNAc6S(b1-4)GlcNAc = target: GalNAc6S(b1-4)GlcNAc
# In short: as §1
# Glc(a1-4)Glc = target: Glc(a1-4)Glc
# In short: as §1
# [14] = target: Glc(a1-4)Glc(a1-4)Glc(a1-4)Glc
# In short: as §1
# Glc(a1-6)Glc(a1-6)Glc = target: Glc(a1-6)Glc(a1-6)Glc
# In short: as §1
# [15] = target: Glc(a1-6)Glc(a1-6)Glc(a1-6)Glc
# In short: as §1
# Glc(b1-4)Glc = target: Glc(b1-4)Glc
# In short: as §1
# Glc(b1-6)Glc = target: Glc(b1-6)Glc
# In short: as §1
binder,measurement,setting,value
B1,glycan array binding signal (z-score),Gal3S(b1-4)GlcNAc6S,-0.14
same,glycan array binding signal (z-score),[1],-0.241
same,glycan array binding signal (z-score),[2],0.197
same,glycan array binding signal (z-score),[3],-0.158
same,glycan array binding signal (z-score),[4],-0.178
same,glycan array binding signal (z-score),Gal3S4S(b1-4)GlcNAc,-0.17
same,glycan array binding signal (z-score),Gal3S6S(b1-4)GlcNAc,-0.193
same,glycan array binding signal (z-score),Gal3S6S(b1-4)GlcNAc6S,-0.172
same,glycan array binding signal (z-score),Gal4S(b1-4)GlcNAc,-0.19
same,glycan array binding signal (z-score),Gal4S6S(b1-4)GlcNAc,-0.144
same,glycan array binding signal (z-score),Gal6P(b1-4)GlcNAc,-0.236
same,glycan array binding signal (z-score),Gal6S(b1-3)GlcNAc,-0.215
same,glycan array binding signal (z-score),Gal6S(b1-3)GlcNAc6S,-0.159
same,glycan array binding signal (z-score),Gal6S(b1-4)Glc,-0.188
same,glycan array binding signal (z-score),Gal6S(b1-4)Glc6S,-0.172
same,glycan array binding signal (z-score),Gal6S(b1-4)GlcNAc,-0.262
same,glycan array binding signal (z-score),Gal6S(b1-4)GlcNAc6S,-0.097
same,glycan array binding signal (z-score),GalNAc(a1-3)Gal,-0.079
same,glycan array binding signal (z-score),GalNAc(a1-3)GalNAc,-0.281
same,glycan array binding signal (z-score),[5],-0.242
same,glycan array binding signal (z-score),[6],-0.248
same,glycan array binding signal (z-score),GalNAc(b1-3)Gal,-0.178
same,glycan array binding signal (z-score),[7],-0.231
same,glycan array binding signal (z-score),[8],-0.221
same,glycan array binding signal (z-score),[9],-0.238
same,glycan array binding signal (z-score),GalNAc(b1-3)GalNAc,-0.228
same,glycan array binding signal (z-score),GalNAc(b1-3)GlcNAc,-0.142
same,glycan array binding signal (z-score),GalNAc(b1-4)Gal(b1-4)Glc,-0.155
same,glycan array binding signal (z-score),GalNAc(b1-4)GlcNAc,-0.032
same,glycan array binding signal (z-score),[10],-0.164
same,glycan array binding signal (z-score),[11],0.509
same,glycan array binding signal (z-score),[12],-0.269
same,glycan array binding signal (z-score),GalNAc(b1-4)GlcNAc6S,-0.177
same,glycan array binding signal (z-score),GalNAc(b1-6)GalNAc,-0.239
same,glycan array binding signal (z-score),GalNAc3S(b1-4)GlcNAc,-0.18
same,glycan array binding signal (z-score),GalNAc3S(b1-4)GlcNAc3S,-0.156
same,glycan array binding signal (z-score),[13],-0.1
same,glycan array binding signal (z-score),GalNAc4S6S(b1-4)GlcNAc,-0.234
same,glycan array binding signal (z-score),GalNAc6S(b1-4)GlcNAc,-0.213
same,glycan array binding signal (z-score),Glc(a1-4)Glc,-0.178
same,glycan array binding signal (z-score),[14],-0.168
same,glycan array binding signal (z-score),Glc(a1-6)Glc(a1-6)Glc,-0.214
same,glycan array binding signal (z-score),[15],-0.092
same,glycan array binding signal (z-score),Glc(b1-4)Glc,-0.234
same,glycan array binding signal (z-score),Glc(b1-6)Glc,-0.165
